Test results as given in article PMC12136788.
The list shows a part of the results.

T1: UNK ZnF1-6 (called full-length) (human, UniProt Q9C0B0 30-357)
T1 sequence: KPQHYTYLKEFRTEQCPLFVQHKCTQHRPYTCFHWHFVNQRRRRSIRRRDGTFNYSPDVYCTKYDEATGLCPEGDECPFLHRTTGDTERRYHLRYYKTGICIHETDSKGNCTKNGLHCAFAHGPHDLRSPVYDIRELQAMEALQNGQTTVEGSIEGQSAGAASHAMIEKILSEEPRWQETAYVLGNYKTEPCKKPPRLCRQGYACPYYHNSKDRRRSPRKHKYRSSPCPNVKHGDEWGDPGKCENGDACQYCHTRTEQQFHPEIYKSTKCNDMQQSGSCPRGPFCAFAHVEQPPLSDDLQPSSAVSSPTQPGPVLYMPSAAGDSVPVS

B1: ENSG00000112679:stop:overlap|stop_codon|ENSG00000112679|stop_codon|NA|stop_codon (ssRNA)
RNA: GGGAGUUCUACAGUCCGACGAUCGCUUCCAGAGACAGCUCCAGGAGUUUGAGAAGCAUGAGGUCCAUCAGGUAAGCAGUUCUUAGGGGACAUCAGAGAUGCAGGCAGGUGCCCCUGAACGGUGCCCACAGUCUUUCCGUACACCAACAGAGGAUUGAGCAUCA
B2: chr1:155134173:155134274:+|3pUTR|ENSG00000169242|msi1|total|mutant (ssRNA)
RNA: GGGAGUUCUACAGUCCGACGAUCGCCACUUUCAGAGCCCCCAGCCCUGGGAACCACUCCCACCACAGGCAUAAGCUAUCACCCCGCAGCCUCAAAACGGGUCAGUAUUAAGGUUUUCAACCGGAAGGAGGCCAACCAGCCCGACAACAGAGGAUUGAGCAUCA
B3: chr17:67340809:67340863:-|CDS_3pUTR|ENSG00000197170|msi1_unk|FALSE|overlapping (ssRNA)
RNA: GGGAGUUCUACAGUCCGACGAUCACAAAACUACGCAUCUCAUAGCCAAAGAGGAGAUGAUACAUAAUCUACAAUAAGGGUCUUAGUGCUUUAGAAAAAAGUUAAAAUUGGAAGUCAUUAAAAAAAGACUGUUAUAAUGGUGUACAACAGAGGAUUGAGCAUCA
B4: chr19:35623609:35623710:+|3pUTR|ENSG00000249115|unk|FALSE|unique (ssRNA)
RNA: GGGAGUUCUACAGUCCGACGAUCGCCUUCUAGUUUGUAUAGUUUCUUUUUUUACAUGUAAAUCAGCCAUUUGGAAUUUAUCCUAGCACAUGGAUCCAAUUUUGUCUUAUUUUACAUAUAUCCUAGUAGCACUUACUGAAAUUCCAACAGAGGAUUGAGCAUCA
B5: chr14:99169286:99174150:-|three_prime_utr|ENSG00000127152|control|control|control (ssRNA)
RNA: GGGAGUUCUACAGUCCGACGAUCAAUUCCUUUAAGAGAUUUUGUUGGGUAUCCAUCCCUUCUUUGUUUUUUUUUUAACCCGGUAGUAGCCUGAGCAAUGACUCGCAAGCAAUGUUAGAGGGGAAGCAUAUCUUUUAAAUUAUACAACAGAGGAUUGAGCAUCA
B6: chr1:13115521:13116400:-|CDS|ENSG00000275774|control|control|control (ssRNA)
RNA: GGGAGUUCUACAGUCCGACGAUCGAACAGAGCAAACAAGAGGUAGAGGUGAAAAAUGCUAAGUCAGAAGAGGAGCAGAGCAGUAGCUCCAUGAAGAAAGAUGAGACUCAUGUAAAGAUGGAGUCUGAGGGGGGUGCAGAAGACCAACAGAGGAUUGAGCAUCA
B7: chr19:45711045:45711146:-|3pUTR|ENSG00000177051|msi1|FALSE|bound_elsewhere (ssRNA)
RNA: GGGAGUUCUACAGUCCGACGAUCGAAUUGGGGGCUGUCAGGUCACAGGUGGGAUCUGGCAUUUUUUUAUGACAGUCCAUUUCUAGAUGGUUUGCCUAUUAAAGAAGUGGGGGGGAAAUACUGUUUUCUCCUUAACCUCAAGCUCAACAGAGGAUUGAGCAUCA
B8: chrX:14865087:14865190:-|CDS|ENSG00000181544|unk|total|mutant (ssRNA)
RNA: GGGAGUUCUACAGUCCGACGAUCAUAUUUUUUACUAAUCCUUCACAGUACUAAUAAAUUUGAAAUGCGUUUGAGUUUUAAACCCGGCUAUGAGAUGAAGGAUGGCCUAAGGGUCCUUAAUGGCCCUUUAAUUUUAUGGAGGCACAACAGAGGAUUGAGCAUCA
B9: ENSG00000136451:be:win_3001|3pUTR|ENSG00000136451|bound_else_gene|NA|bound_elsewhere_windowed (ssRNA)
RNA: GGGAGUUCUACAGUCCGACGAUCUGGUUUUUUUCAUUUUUUAAUCAUUGCAGUUAAGAGAAAUGGAAAUUAGUUGUGUUAAUCUUGCAGAAUGUUUGCAGGACUGACUAUCAAACUGGAUGAUUUCCAUUUAUACCCUACUGUCAACAGAGGAUUGAGCAUCA
B10: chr3:105576037:105576138:+|3pUTR|ENSG00000170017|msi1|total|mutant (ssRNA)
RNA: GGGAGUUCUACAGUCCGACGAUCCUCCGUUUAAUAAAAGCUUCCGCCGUGCAUUGGUAUGGAUUAAAUGCAUAAAAUAUUCUCCGACUCGAUGCUGUAUAAAAUAUUAUGGGAAAAAAAGAAAAUACGUUAUUUUGCCUCUAACAACAGAGGAUUGAGCAUCA
B11: chrX:120253675:120253799:+|CDS|ENSG00000177485|unk|FALSE|bound_elsewhere (ssRNA)
RNA: GGGAGUUCUACAGUCCGACGAUCUAAAAUUGUUCGUGUUAGAUCAGAUUUGCUUGAUGAGUUAAUUAAAUCAGGGCAGUUAUUAGGAGUGAAAUUUAUAGCAGAGCUUGGUGUCCCAUUGUCACAGGUUAAAAGCAUCUCAGGCAACAGAGGAUUGAGCAUCA
B12: chr1:18907414:18907603:-|3pUTR|ENSG00000169991|msi1|total|mutant (ssRNA)
RNA: GGGAGUUCUACAGUCCGACGAUCCCUUGAUUUCCCUGAUAACUUGAUGUUCUUCCCUCCCUCGCCAGCCAACAACCGAGGCUCCGAGAUCUGUAAUUUCUCUGUGAGAAAGUCUGAAGGGGCCAGGCCUGGUCUCUGCUCCCUCAACAGAGGAUUGAGCAUCA
B13: chr2:169127108:169128830:-|three_prime_utr|ENSG00000081479|control|control|control (ssRNA)
RNA: GGGAGUUCUACAGUCCGACGAUCCUGCAACAGAAGACACUUUUAAAGACACCGCAAAUCUUGUUAAAGAAGACUCUGAAGUAUAGCUAUACCAGCUAUUUAGGGAAUAAUUAGAAACACACUUUUGCACAUAUAUUUUUUACACAACAGAGGAUUGAGCAUCA
B14: ENSG00000070961:be:win_2001|CDS|ENSG00000070961|bound_else_gene|NA|bound_elsewhere_windowed (ssRNA)
RNA: GGGAGUUCUACAGUCCGACGAUCAAAUGAUAUUGUCACCGGCCUUACAUGCAUUGCUGUUGUGGGGAUUGAAGAUCCUGUGAGACCUGAGGUGCCAGAUGCAAUUAAAAAGUGUCAGAGGGCUGGAAUUACUGUGCGGAUGGUCAACAGAGGAUUGAGCAUCA

biological target: T1, UNK ZnF1-6 (called full-length); experiment: nsRBNS (natural sequence RNA bind-n-seq); RBNS binding buffer (assumed for nsRBNS): 25 mM Tris pH 7.5, 150 mM KCl, 3 mM MgCl2, 0.01% Triton X-100, 500 ug/ml BSA, 20 U/ml SUPERase-In, 4 C; UNK is unkempt and MSI1 is Musashi-1; names of the RNAs are library labels; protein concentration not given here; high values mean tight binding

Point of comparison: B13, binding signal 10 enrichment R. Against it:
- B1 — lower, 0.556 enrichment R
- B2 — lower, 0.961 enrichment R
- B3 — lower, 0.932 enrichment R
- B4 — higher, 14.9 enrichment R
- B5 — lower, 1.39 enrichment R
- B6 — lower, 0.882 enrichment R
- B7 — lower, 0.636 enrichment R
- B8 — lower, 0.538 enrichment R
- B9 — lower, 0.499 enrichment R
- B10 — lower, 0.529 enrichment R
- B11 — lower, 1.83 enrichment R
- B12 — lower, 0.733 enrichment R
- B14 — lower, 0.643 enrichment R
